Results as given in the supplement of paper PMC4967469.

Experiments:
Assay in all cases: Viability of human cancer cell lines after 72 h of drug (GDSC screen)
ABT-888 = compound: C[C@]1(c2nc3c(C(N)=O)cccc3[nH]2)CCCN1 [ABT-888]; conditions: top dose 5 µM; top dose inferred
Method: (§1)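 Human cancer cell lines in 384-well plates, medium with 10% serum, drug for 72 h over a 256-fold dose range (nine 2-fold or five 4-fold steps up to the top dose). Adherent lines were fixed and stained with the nucleic acid dye Syto60, suspension lines read with resazurin; signal relative to control wells, capped at 0 and 100%. One two-parameter sigmoid per drug and line, fitted in a mixed model over all curves with the slope shared within a line.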

CHIR-99021 = compound: Cc1cnc(-c2cnc(NCCNc3ccc(C#N)cn3)nc2-c2ccc(Cl)cc2Cl)[nH]1 [CHIR-99021]
Method: as §1

(5Z)-7-Oxozeaenol = compound: COc1cc(O)c2c(c1)/C=C/C[C@H](O)[C@H](O)C(=O)/C=C\C[C@H](C)OC2=O [(5Z)-7-Oxozeaenol]; conditions: top dose 10 µM; top dose inferred
Method: as §1

QL-X-138 = compound: C=CC(=O)Nc1cc(-n2c(=O)ccc3cnc4ccc(-c5cn[nH]c5)cc4c32)ccc1C [QL-X-138]; conditions: top dose 10.24 µM; top dose inferred
Method: as §1

Thapsigargin = compound: C/C=C(/C)C(=O)O[C@H]1C(C)=C2[C@H]([C@@H]1OC(=O)CCCCCCC)[C@@](C)(OC(C)=O)C[C@H](OC(=O)CCC)[C@@]1(O)[C@H]2OC(=O)[C@@]1(C)O [Thapsigargin]; conditions: top dose 0.512 µM; top dose inferred
Method: as §1

CMK = compound: Cc1ccc(-c2c(C(=O)CCl)n(CCCO)c3ncnc(N)c23)cc1 [CMK]; conditions: top dose 4 µM; top dose inferred
Method: as §1

ABT-869 = compound: Cc1ccc(F)c(NC(=O)Nc2ccc(-c3cccc4[nH]nc(N)c34)cc2)c1 [ABT-869]; conditions: top dose 1.024 µM; top dose inferred
Method: as §1

Cytarabine = compound: Nc1ccn([C@@H]2O[C@H](CO)[C@@H](O)[C@@H]2O)c(=O)n1 [Cytarabine]; conditions: top dose 2 µM
Method: as §1

Zibotentan = compound: COc1nc(C)cnc1NS(=O)(=O)c1cccnc1-c1ccc(-c2nnco2)cc1 [Zibotentan]; conditions: top dose 20 µM; top dose inferred
Method: as §1

CP466722 = compound: COc1cc2ncnc(-n3nc(-c4ccccn4)nc3N)c2cc1OC [CP466722]; conditions: top dose 16 µM; top dose inferred
Method: as §1

GSK269962A = compound: CCn1c(-c2nonc2N)nc2cnc(Oc3cccc(NC(=O)c4ccc(OCCN5CCOCC5)cc4)c3)cc21 [GSK269962A]; conditions: top dose inferred
Method: as §1

KU-55933 = compound: O=c1cc(-c2cccc3c2Sc2ccccc2S3)oc(N2CCOCC2)c1 [KU-55933]; conditions: top dose 10 µM
Method: as §1

MPS-1-IN-1 = compound: COc1cc(N2CCC(O)CC2)ccc1Nc1cc(Nc2ccccc2S(=O)(=O)C(C)C)c2cc[nH]c2n1 [MPS-1-IN-1]; conditions: top dose 20 µM; top dose inferred
Method: as §1

[1] = top dose 2.56 µM, screen: GDSC drug entry 154
[2] = top dose 10 µM, screen: GDSC drug entry 1241, top dose inferred
[3] = top dose 2.5 µM, screen: GDSC drug entry 127
[4] = top dose 5 µM, screen: GDSC drug entry 1192

Row | Cell Line | AUC (ABT-888) | IC50 (ABT-888) [µM] | AUC (CHIR-99021; [1]) | IC50 (CHIR-99021; [1]) [µM] | AUC (CHIR-99021; [2]) | IC50 (CHIR-99021; [2]) [µM] | AUC ((5Z)-7-Oxozeaenol) | IC50 ((5Z)-7-Oxozeaenol) [µM] | AUC (QL-X-138) | IC50 (QL-X-138) [µM] | AUC (Thapsigargin) | IC50 (Thapsigargin) [µM] | AUC (CMK) | IC50 (CMK) [µM] | AUC (ABT-869) | IC50 (ABT-869) [µM] | AUC (Cytarabine) | IC50 (Cytarabine) [µM] | AUC (Zibotentan) | IC50 (Zibotentan) [µM] | AUC (CP466722) | IC50 (CP466722) [µM] | AUC (GSK269962A; [3]) | IC50 (GSK269962A; [3]) [µM] | AUC (GSK269962A; [4]) | IC50 (GSK269962A; [4]) [µM] | AUC (KU-55933) | IC50 (KU-55933) [µM] | AUC (MPS-1-IN-1) | IC50 (MPS-1-IN-1) [µM]
1 | MHH-PREB-1 (B-cell leukaemia, suspension) | 0.987 | > 5 | 0.985 | > 2.56 | 0.915 | > 10 | 0.647 | 1.52 | 0.503 | 0.651 | 0.36 | 0.0138 | 0.792 | 1.6 | 0.989 | > 1.02 | 0.53 | 0.15 | 0.988 | > 20 | 0.779 | 5.82 | 0.941 | > 2.5 | 0.769 | 1.69 | 0.88 | 8.52 | 0.81 | 9.22
2 | MLMA (hairy cell leukaemia, semi-adherent) | 0.966 | > 5 | 0.985 | > 2.56 | 0.959 | > 10 | 0.483 | 0.562 | 0.448 | 0.462 | 0.558 | 0.0461 | 0.839 | 2.75 | 0.986 | > 1.02 | 0.399 | 0.0658 | 0.973 | > 20 | 0.686 | 3.34 | 0.961 | > 2.5 | 0.951 | > 5 | 0.871 | 9.58 | 0.879 | > 20
3 | MMAC-SF (melanoma, adherent) | 0.978 | > 5 | 0.985 | > 2.56 | 0.938 | > 10 | 0.124 | < 0.0391 | 0.788 | 4.69 | 0.407 | 0.0176 | 0.822 | 2.47 | 0.987 | > 1.02 | 0.935 | > 2 | 0.987 | > 20 | 0.878 | > 16 | 0.967 | > 2.5 | 0.942 | > 5 | 0.942 | > 10 | 0.981 | > 20
4 | MN-60 (B-cell leukaemia, suspension) | 0.984 | > 5 | 0.987 | > 2.56 | 0.973 | > 10 | 0.738 | 3.09 | 0.522 | 0.739 | 0.615 | 0.0673 | 0.967 | > 4 | 0.979 | > 1.02 | 0.961 | > 2 | 0.988 | > 20 | 0.78 | 6.87 | 0.984 | > 2.5 | 0.91 | > 5 | 0.985 | > 10 | 0.965 | > 20
5 | MOLP-8 (myeloma, suspension) | 0.983 | > 5 | 0.986 | > 2.56 | 0.972 | > 10 | 0.517 | 0.695 | 0.284 | 0.161 | 0.213 | 0.0048 | 0.754 | 1.3 | 0.987 | > 1.02 | 0.868 | 1.71 | 0.967 | > 20 | 0.663 | 2.78 | 0.945 | > 2.5 | 0.724 | 1.32 | 0.965 | > 10 | 0.669 | 3.62
6 | MOLT-4 (lymphoblastic leukaemia, suspension) | 0.974 | > 5 | 0.99 | > 2.56 | 0.975 | > 10 | 0.54 | 0.787 | 0.727 | 2.43 | 0.557 | 0.0444 | 0.983 | > 4 | 0.982 | > 1.02 | 0.357 | 0.0547 | 0.991 | > 20 | 0.59 | 1.68 | 0.974 | > 2.5 | 0.769 | 1.55 | 0.916 | > 10 | 0.814 | 8.45
7 | MONO-MAC-6 (acute myeloid leukaemia, suspension) | 0.982 | > 5 | 0.98 | > 2.56 | 0.981 | > 10 | 0.165 | 0.0546 | 0.733 | 3.09 | 0.19 | 0.00355 | 0.882 | > 4 | 0.313 | 0.0186 | 0.816 | 1.19 | 0.975 | > 20 | 0.464 | 0.791 | 0.975 | > 2.5 | 0.816 | 2.98 | 0.888 | > 10 | 0.817 | 12
8 | MPP-89 (mesothelioma, adherent) | 0.981 | > 5 | 0.957 | > 2.56 | 0.916 | > 10 | 0.684 | 2.42 | 0.848 | > 10.2 | 0.358 | 0.0114 | 0.955 | > 4 | 0.981 | > 1.02 | 0.769 | 0.984 | 0.971 | > 20 | 0.89 | > 16 | 0.735 | 0.915 | 0.769 | 2.47 | 0.958 | > 10 | 0.927 | > 20
9 | MRK-nu-1 (breast, suspension) | 0.977 | > 5 | 0.987 | > 2.56 | 0.987 | > 10 | 0.822 | 5.24 | 0.819 | 5.22 | 0.459 | 0.025 | 0.782 | 1.53 | 0.99 | > 1.02 | 0.99 | > 2 | 0.99 | > 20 | 0.938 | > 16 | 0.693 | 0.517 | 0.728 | 1.3 | 0.989 | > 10 | 0.869 | 15.9

The IC50 comes from the fitted curve, where viability falls to half of the control; a fit beyond the top or the lowest dose is shown as a bound at that dose. AUC sums up the same curve from the lowest dose to the 256-fold higher top dose; it is 1 without any effect and falls as sensitivity rises. For part of these data: Any top dose called inferred was calculated from the reported fits. For part of these data: An entry number marks a drug with two screens in the source, which often give different values.
